# Several values for one entry are separate records, joined by “and”; a condition that tells them apart may be missing. Equal values may be shown once. The shares of active, inactive and inconclusive entries below differ from those in the screen. Potencies of inconclusive entries are doubtful fits and often do not repeat. Activity calls are given as the source filed them. The call rests on the fitted dose curve; in most records, active means well fitted curve in the direction sought with a large enough effect in the repeat runs; inconclusive means weak or mixed curves; inactive means no such curve, though single readings can be large; an effect the other way counts as inactive or inconclusive.
# Tested on: not listed separately
# Assay: A CellTox Green Cytotoxicity Assay to monitor cytotoxicity in HepG2 cells - 8 hour (AID 1224890); further: nearly all actives have a fitted effect of over 45% in size
# Details: CellTox Green fluorescence; series mostly up to 76.8 µM; cytotoxicity increase: at the top concentration
# How it was run: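 Cells and non-lytic dye reagent are dispensed together (600 HepG2 cells/well) and incubated 5 h before DMSO compound transfer. Kinetic fluorescence is then recorded in the same wells during 40 h at 37 C.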
# On the % scale 0 is the no-effect control and ±100 the full control effect; potency means the concentration at half of the fitted maximal effect; tags describe the fitted curve by direction and shape.
SMILES,cytotoxicity increase,Potency
O=[N+]([O-])c1ccccc1CCl,inactive: 9.65%,–
COc1cc(CCN)cc(OC)c1OC,inactive: -5.33%,–
CNC(=O)NC(O)C(Cl)(Cl)Cl (configuration not stated),–,"inconclusive: 26.8 µM [activator, partial curve, poor fit]"
c1cncc([C@@H]2CCCCN2)c1,–,"inconclusive: 43.6 µM [activator, partial curve, poor fit]"
FC(Cl)(Cl)Cl,inactive: 13.6%,–

# Tested on: not listed separately
# Assay: qHTS assay to identify small molecule antagonists of the estrogen receptor alpha (ER-alpha) signaling pathway using the BG1 cell line in the presence of 0.1 nM 17-beta-estradiol - cell viability counter screen (AID 1259241); further: nearly all actives have a fitted effect of over 40% in size
# Details: VM7Luc4E2 (BG1) viability, CellTiter-Fluor protease, 22 h, 0.1 nM estradiol agonist added; series mostly up to 92.4 µM; activity change, negative = cytotoxicity: at the top concentration
# How it was run: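 The cell line endogenously expresses full-length ER-alpha and carries four EREs driving luciferase. Cells are cultured 5 days hormone-free, treated 22 hr with compounds and 0.1 nM estradiol, then viability is read by fluorescence.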
SMILES,Potency,"activity change, negative = cytotoxicity"
O=[N+]([O-])c1ccccc1CCl,"inconclusive: 55.1 µM [rising, partial curve, poor fit]",–
C=CCC1(C(C)CC)C(=O)NC(=O)NC1=O (configuration not stated),–,inactive: 0.194% [at 42.5 µM]
CC(C)CC(C)N (configuration not stated),–,inactive: 5.76%
Fc1cccc(Cl)c1CCl,"inconclusive: 13.7 µM [cytotoxic, single point]",–
CC(C)(C)N(NC(=O)c1ccc(Cl)cc1)C(=O)c1ccccc1,"inconclusive: 21.6 µM [cytotoxic, partial curve]",–
Nc1ccc([N+](=O)[O-])cc1N,"inconclusive: 27.3 µM [cytotoxic, partial curve]",–
CCc1ccccc1N,–,inactive: -12.1%
CCOP(=S)(OCC)Oc1cc(C)nc(N(CC)CC)n1,–,inactive: -0.202%
CCCCN=C=O,–,inactive: 4.66%
CCSC(=O)Cl,–,inactive: -4.72%
Nc1ccc(N=Nc2ccc(-c3ccc(N=Nc4c(S(=O)(=O)O)cc5cc(S(=O)(=O)O)c(N=Nc6ccccc6)c(O)c5c4N)cc3)cc2)c(N)c1,"inconclusive: 12.5 µM [cytotoxic, partial curve, poor fit]",–
Nc1ccc([N+](=O)[O-])cc1[N+](=O)[O-],"inconclusive: 66.8 µM [cytotoxic, partial curve, poor fit]",–
COP(=O)(OC)Oc1ccc([N+](=O)[O-])cc1,"inconclusive: 68.6 µM [cytotoxic, partial curve, poor fit]",–
CC(Cl)CCl (configuration not stated),–,inactive: 7.97%
CCN(CC)C(=O)Cl,–,inactive: -2.8%

# Tested on: not listed separately
# Assay: qHTS assay to identify small molecule antagonists of the androgen receptor (AR) signaling pathway using the MDA cell line in the presence of 0.5 nM R1881 - cell viability counter screen (AID 1259242); further: nearly all actives have a fitted effect of over 45% in size
# Details: MDA-kb2 viability, CellTiter-Fluor protease fluorescence, 16 h; series mostly up to 92.4 µM; viability change, negative = cytotoxic: at the top concentration
# How it was run: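 Steps: plate MDA-kb2 cells, rest 5 hr at 37C without CO2; pin in compounds in DMSO; add R1881 to 0.5 nM final; incubate 16 hr; add CellTiter-Fluor, 30 min; read fluorescence.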
SMILES,"viability change, negative = cytotoxic",Potency
O=C(Cl)CCl,inactive: -2.12%,–
Nc1ccc([N+](=O)[O-])cc1N,–,"inconclusive: 61.1 µM [cytotoxic, single point] and inconclusive: 61.1 µM [cytotoxic, partial curve, poor fit]"
CCCCCCCCCC(=O)O[C@H]1CC[C@H]2[C@@H]3CCC4=CC(=O)CC[C@@H]4[C@H]3CC[C@]12C,inactive: 5.99% [at 42.5 µM],–
Cn1cc[n+](C)c1 (tested in a mixture with another compound),inactive: 0.279%,–
Cc1ccc(-c2c(Cl)nc(C#N)n2S(=O)(=O)N(C)C)cc1,–,"inconclusive: 54.4 µM [cytotoxic, partial curve]"
S=C=Nc1ccccc1,inactive: 2.17%,–
NNC(=O)c1cccnc1,inactive: 1.95%,–
C=CCN=C=S,–,inactive

# Biological target: Androgen receptor (Homo sapiens) (UniProt P10275)
# Assay: qHTS assay to identify small molecule antagonists of the androgen receptor (AR) signaling pathway using the MDA cell line in the presence of 0.5 nM R1881 (AID 1259243); further: nearly all actives have a fitted effect of over 50% in size
# Details: MDA-kb2 MMTV-luciferase, R1881 0.5 nM, 16 h; series mostly up to 92.4 µM; activity, negative = inhibition: at the top concentration
# How it was run: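 Stably transfected MDA-kb2 cells express luciferase from an MMTV promoter bearing both AR and GR response elements. Compounds plus 0.5 nM R1881 (final) were incubated 16 hr at 37C without CO2, then luminescence measured.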
# Chain of UniProt P10275 (P10275 whole entry, looked up): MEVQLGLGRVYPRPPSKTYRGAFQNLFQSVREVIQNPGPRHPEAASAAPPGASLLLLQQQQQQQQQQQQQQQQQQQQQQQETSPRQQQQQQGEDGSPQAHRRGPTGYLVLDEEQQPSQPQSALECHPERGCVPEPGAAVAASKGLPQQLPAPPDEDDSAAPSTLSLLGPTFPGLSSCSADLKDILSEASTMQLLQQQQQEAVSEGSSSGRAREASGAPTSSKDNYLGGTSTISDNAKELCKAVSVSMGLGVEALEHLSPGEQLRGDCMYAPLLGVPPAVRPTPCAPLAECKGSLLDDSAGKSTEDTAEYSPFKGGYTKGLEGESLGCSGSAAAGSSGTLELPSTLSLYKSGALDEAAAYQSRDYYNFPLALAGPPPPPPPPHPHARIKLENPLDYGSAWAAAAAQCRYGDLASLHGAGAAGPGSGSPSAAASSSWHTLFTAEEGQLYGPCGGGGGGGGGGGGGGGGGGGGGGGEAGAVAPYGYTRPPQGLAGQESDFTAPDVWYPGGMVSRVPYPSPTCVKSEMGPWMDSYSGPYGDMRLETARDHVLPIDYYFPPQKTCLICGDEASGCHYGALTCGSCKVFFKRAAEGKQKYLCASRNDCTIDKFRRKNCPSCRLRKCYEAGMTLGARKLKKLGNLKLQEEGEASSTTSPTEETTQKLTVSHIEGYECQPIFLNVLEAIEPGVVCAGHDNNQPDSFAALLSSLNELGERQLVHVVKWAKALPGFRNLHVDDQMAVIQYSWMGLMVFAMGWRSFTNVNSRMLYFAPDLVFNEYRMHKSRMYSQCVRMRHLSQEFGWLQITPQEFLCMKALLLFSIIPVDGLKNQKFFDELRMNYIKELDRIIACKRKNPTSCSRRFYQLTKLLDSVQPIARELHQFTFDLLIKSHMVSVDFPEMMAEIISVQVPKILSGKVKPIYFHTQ
SMILES,"activity, negative = inhibition",Potency
C[C@@H]1CC[C@H]2[C@@H](C)C(=O)O[C@@H]3O[C@@]4(C)CC[C@@H]1[C@]32OO4,inactive: -6.87% [at 42.5 µM],–
CCCCN(N=O)C(=N)N[N+](=O)[O-],–,"inconclusive: 35.1 µM [inhibitor, partial curve]"
Nc1ccc([N+](=O)[O-])cc1[N+](=O)[O-],–,"inconclusive: 59.6 µM [inhibitor, partial curve, poor fit]"
CO[C@@H]1[C@H](OC(=O)NC(=O)CCl)CC[C@]2(CO2)[C@H]1[C@@]1(C)O[C@@H]1CC=C(C)C,–,"inconclusive: 21.1 µM [inhibitor, partial curve, poor fit]"
CN(C)C(=O)Oc1cc(OC(=O)N(C)C)cc(C(O)CNC(C)(C)C)c1 (configuration not stated),inactive: 11.1% [at 42.5 µM],–
SCc1ccco1,–,"inconclusive: 68.6 µM [inhibitor, single point]"
Cl/C=C\C[N+]12CN3CN(CN(C3)C1)C2,–,"inconclusive: 68.6 µM [inhibitor, single point]"
O=C(CBr)Nc1ccc(Cl)cc1C(=O)c1ccccc1F,–,inconclusive: 21.1 µM [inhibitor]
S=C=Nc1ccccc1,inactive: -21%,–
CCOP(=S)(OCC)OP(=S)(OCC)OCC,–,inactive

# Biological target: Estrogen receptor (Homo sapiens) (UniProt P03372)
# Assay: qHTS assay to identify small molecule antagonists of the estrogen receptor alpha (ER-alpha) signaling pathway using the BG1 cell line in the presence of 0.1 nM 17-beta-estradiol (AID 1259244); further: nearly all actives have a fitted effect of over 50% in size
# Details: VM7Luc4E2 (BG1) ERE-luciferase, antagonist mode, 0.1 nM E2, 22 h; series mostly up to 92.4 µM; activity change, negative = inhibition: at the top concentration
# How it was run: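 Antagonist mode: compounds in DMSO are pinned onto VM7Luc4E2 reporter cells, 0.1 nM final 17beta-estradiol is added, and after 22 h at 37C luciferase luminescence is measured with ONE-Glo.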
# Chain of UniProt P03372 (P03372 whole entry, looked up): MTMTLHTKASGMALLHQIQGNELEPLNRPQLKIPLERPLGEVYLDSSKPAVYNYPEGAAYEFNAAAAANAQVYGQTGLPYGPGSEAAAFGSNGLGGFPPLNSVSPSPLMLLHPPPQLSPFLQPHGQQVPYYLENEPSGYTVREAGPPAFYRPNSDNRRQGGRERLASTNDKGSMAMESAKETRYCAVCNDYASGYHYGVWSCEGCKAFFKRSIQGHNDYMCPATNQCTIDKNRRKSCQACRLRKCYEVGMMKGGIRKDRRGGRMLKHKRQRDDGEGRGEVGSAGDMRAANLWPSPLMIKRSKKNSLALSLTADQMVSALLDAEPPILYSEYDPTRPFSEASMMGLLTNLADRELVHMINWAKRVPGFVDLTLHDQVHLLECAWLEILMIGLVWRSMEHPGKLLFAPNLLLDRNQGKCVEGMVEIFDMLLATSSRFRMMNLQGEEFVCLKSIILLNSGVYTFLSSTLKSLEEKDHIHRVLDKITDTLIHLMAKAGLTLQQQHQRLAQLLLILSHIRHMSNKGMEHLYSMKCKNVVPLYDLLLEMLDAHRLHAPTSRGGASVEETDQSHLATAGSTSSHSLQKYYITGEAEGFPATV
SMILES,Potency,"activity change, negative = inhibition"
CCOP(=S)(OCC)Oc1cc(C)nc(N(CC)CC)n1,"inconclusive: 48.6 µM [inhibitor, partial curve, poor fit]",–
CC(O)(CS(=O)(=O)c1ccc(F)cc1)C(=O)Nc1ccc(C#N)c(C(F)(F)F)c1 (configuration not stated),"inconclusive: 31.8 µM [inhibitor, single point]",–
O=C(C(Cl)(Cl)Cl)C(Cl)(Cl)Cl,–,inactive: 5.22%
CCOC(=O)CP(=O)(OCC)OCC,–,inactive: 13.1%

# Reference: PubChem BioAssay (Tox21)
